Experiment [1] addresses Codanin1 C-terminus (amino acids 1005-1227), bacterial (human) (UniProt Q8IWY9). Put plainly: SEC-MALS; CDIN1 (2 mg/mL), Codanin1_(Cterm) (2 mg/mL) or the 1:1 complex; Zenix SEC 300 column; 20 mM Tris/HCl, 150 mM NaCl, pH 8.0; both purified. In general terms: In gel filtration, larger molecules generally elute earlier.
For experiment [2] the target is unchanged. Put plainly: SEC-SAXS; Superdex 200 Increase 5/150 GL; injected at 10 mg/mL; 20 mM Tris/HCl, 150 mM NaCl, 5% glycerol, pH 8.0; 20 °C; profiles compared with AlphaFold models (CRYSOL, OLIGOMER); both purified.
The target of experiment [3] is T1, Codanin1 full length S1036F-R1042W-D1043V (FWV), expressed in HEK293T (human) (UniProt Q8IWY9).
T1 sequence: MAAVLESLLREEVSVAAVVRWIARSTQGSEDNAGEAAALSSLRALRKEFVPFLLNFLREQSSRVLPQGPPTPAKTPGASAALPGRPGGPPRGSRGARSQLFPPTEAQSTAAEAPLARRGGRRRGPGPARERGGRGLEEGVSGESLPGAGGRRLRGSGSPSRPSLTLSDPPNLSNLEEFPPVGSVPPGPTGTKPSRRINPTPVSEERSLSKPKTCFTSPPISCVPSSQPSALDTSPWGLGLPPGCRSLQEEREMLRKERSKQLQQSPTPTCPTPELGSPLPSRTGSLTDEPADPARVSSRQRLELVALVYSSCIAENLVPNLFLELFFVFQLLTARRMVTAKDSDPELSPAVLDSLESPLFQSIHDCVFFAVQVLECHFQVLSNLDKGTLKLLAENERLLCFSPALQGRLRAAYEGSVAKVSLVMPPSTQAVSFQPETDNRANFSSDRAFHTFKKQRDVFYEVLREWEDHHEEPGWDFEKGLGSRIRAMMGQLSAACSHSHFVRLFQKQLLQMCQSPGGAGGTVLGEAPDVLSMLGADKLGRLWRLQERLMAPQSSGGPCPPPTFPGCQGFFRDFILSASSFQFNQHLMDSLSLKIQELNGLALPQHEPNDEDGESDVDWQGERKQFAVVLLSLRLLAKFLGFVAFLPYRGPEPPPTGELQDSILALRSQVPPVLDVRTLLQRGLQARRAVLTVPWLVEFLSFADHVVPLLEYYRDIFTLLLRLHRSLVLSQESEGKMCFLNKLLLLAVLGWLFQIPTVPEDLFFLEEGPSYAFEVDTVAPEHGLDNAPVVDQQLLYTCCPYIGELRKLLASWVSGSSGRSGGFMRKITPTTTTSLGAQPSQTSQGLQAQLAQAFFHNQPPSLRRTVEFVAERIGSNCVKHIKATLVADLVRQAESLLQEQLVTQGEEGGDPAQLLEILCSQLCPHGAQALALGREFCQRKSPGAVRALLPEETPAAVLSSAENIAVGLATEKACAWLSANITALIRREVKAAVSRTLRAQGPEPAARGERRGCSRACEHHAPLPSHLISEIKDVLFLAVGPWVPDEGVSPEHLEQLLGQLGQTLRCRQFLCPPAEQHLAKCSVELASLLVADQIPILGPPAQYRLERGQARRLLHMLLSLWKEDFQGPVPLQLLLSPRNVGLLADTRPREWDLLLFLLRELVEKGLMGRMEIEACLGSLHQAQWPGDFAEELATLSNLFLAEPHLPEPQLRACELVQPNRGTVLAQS
Put plainly: co-IP; HEK293T cotransfected with Flag- and Myc-tagged constructs; lysed in RIPA buffer; anti-FLAG M2 magnetic beads, 3 h at 4 °C; eluted with 3x Flag peptide; Western blot with anti-Flag and anti-Myc. For orientation: Immunoblotting shows a protein as a band on a membrane.

In experiment [4] the target is T2, Codanin1 full length, Flag- or Myc-tagged, expressed in HEK293T (human) (UniProt Q8IWY9).
T2 sequence: T1 sequence with F1036S, W1042R, V1043D
Described as above.

The target in experiment [5] is T3, Codanin1 C-terminus (1005-1227) S1036F-R1042W-D1043V (FWV), expressed in HEK293T (human) (UniProt Q8IWY9).
T3 sequence: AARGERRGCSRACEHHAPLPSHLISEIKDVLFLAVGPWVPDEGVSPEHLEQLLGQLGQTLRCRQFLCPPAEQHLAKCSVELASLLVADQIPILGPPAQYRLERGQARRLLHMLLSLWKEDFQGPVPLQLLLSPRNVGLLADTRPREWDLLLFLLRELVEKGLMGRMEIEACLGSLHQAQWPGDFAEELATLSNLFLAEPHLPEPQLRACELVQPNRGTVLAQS
Described as above.

In experiment [6] the target is T4, Codanin1 C-terminus (amino acids 1005-1227), Flag- or Myc-tagged, expressed in HEK293T (human) (UniProt Q8IWY9).
T4 sequence: T3 sequence with F32S, W38R, V39D
The description is as above.

Experiment [7] addresses T5, Codanin1 full length, Flag- or Myc-tagged, expressed in HEK293T (human), Q8IWY9.
T5 chain: T1 sequence with F1036S, W1042R, V1043D
The description is as above. The following applies: remark: other sources report otherwise.

Where a chain is given by its changes, count along the chain named. In names and notes the source's numbering stands. These are yes or no findings as the source states them, for the method shown. For some of these results: Binding seen in cells or lysates may run through a third protein. Some entries that bind do so weakly or less than the wild type. For some of these results: Where a sequence is shown, tags or fusion partners need not be part of it.

B1: Codanin1 C-terminus (amino acids 1005-1227), bacterial (domain or fragment, human, UniProt Q8IWY9 1005-1227, looked up)
chain: T3 sequence with F32S, W38R, V39D
notes: Codanin-1 (CDAN1), human, amino acids 1005-1227, codon-optimized for bacterial expression; Eluted from the Im7 column by cleavage with His-tagged Ulp1; plasmid pl21 (TriAltus); Anticipated mass is printed as 25 kDa; also called C-terminal part of Codanin1
Turning to B1, the binding result in experiment [1] is reported as “no binding (tested: 2 mg/mL)”; in experiment [2] it was “no binding (tested: 10 mg/mL injected)”.

B2: CDAN1-interacting nuclease 1 (CDIN1), full length, bacterial (natural protein, human, UniProt Q9Y2V0 1-281, looked up)
chain: MILTKAQYDEIAQCLVSVPPTRQSLRKLKQRFPSQSQATLLSIFSQEYQKHIKRTHAKHHTSEAIESYYQRYLNGVVKNGAAPVLLDLANEVDYAPSLMARLILERFLQEHEETPPSKSIINSMLRDPSQIPDGVLANQVYQCIVNDCCYGPLVDCIKHAIGHEHEVLLRDLLLEKNLSFLDEDQLRAKGYDKTPDFILQVPVAVEGHIIHWIESKASFGDECSHHAYLHDQFWSYWNRFGPGLVIYWYGFIQELDCNRERGILLKACFPTNIVTLCHSIA
notes: CDIN1 (C15orf41), human, full length, 281 amino acids; Eluted from the Im7 column by cleavage with His-tagged Ulp1; plasmid pl21 (TriAltus); The anticipated homodimer mass is printed as 67 kDa; Alone in solution it is mainly a homodimer; also called C15orf41
With B2, the binding result in experiment [3] is listed as “no binding”; in experiment [4] it was “binds”; in experiment [5] it was “no binding”; in experiment [6] it was “binds”.

B3: CDIN1 L178Q, expressed in HEK293T, Q9Y2V0 1-281 (protein)
chain: B2 chain with L178Q
For the molecule B3, the binding result in experiment [7] was “no binding”.

B4: CDIN1 Y94C, expressed in HEK293T, Q9Y2V0 1-281 (protein)
chain: B2 chain with Y94C
Take B4: the binding entry in experiment [7] is given as “no binding”.

B5: CDIN1 Y94C-C156Y-L178Q (CYQ), expressed in HEK293T (protein, UniProt Q9Y2V0 1-281)
chain: B2 chain with Y94C, C156Y, L178Q
Consider B5, for which the binding result in experiment [4] is recorded as “no binding”.

B6: CDIN1 C156Y, expressed in HEK293T (protein, UniProt Q9Y2V0 1-281)
chain: B2 chain with C156Y
For B6, the binding result in experiment [4] and in experiment [6] was “binds” in each case.

B7: CDIN1 Y94S, expressed in HEK293T (protein, UniProt Q9Y2V0 1-281)
chain: B2 chain with Y94S
Take B7: the binding entry in experiment [4] and in experiment [6] was “no binding” each time.

B8: CDIN1 Y94S-C156Y-L178Q (SYQ), expressed in HEK293T (protein, UniProt Q9Y2V0 1-281)
chain: B2 chain with Y94S, C156Y, L178Q
As to B8, in experiment [4], the binding entry is on record as “no binding”.

B9: CDIN1 Y94C, expressed in HEK293T (protein, UniProt Q9Y2V0 1-281)
chain: B2 chain with Y94C
For the molecule B9, the binding result in experiment [6] was “no binding”.

B10: CDIN1 L178Q, expressed in HEK293T (protein, UniProt Q9Y2V0 1-281)
chain: B2 chain with L178Q
Turning to B10, in experiment [6], the binding entry was “no binding”.
